Results reported in the supplement of paper PMC12340641.
Whole data set: some 1,000 compounds, median “relative growth recovery (pomalidomide 10 uM = 100%, DMSO = 0%)” near -1.6, cut for the highest 2% near 21. This is one part of the list.

Tested on: HEK293FT dCK*-IKZF1
Experiment: relative growth recovery (pomalidomide 10 uM = 100%, DMSO = 0%); higher = more growth rescue (IKZF1 fusion degradation)
Details: compound concentration: 5 uM; AraC concentration: 0.3 uM; overnight pretreatment + 4 days AraC
Protocol: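 Growth recovery screen of the molecular-glue-like (Specs) library. HEK293FT cells expressing a dCK*-IKZF1 fusion (primary) or dCK* alone (counter) were pretreated overnight with compound at 5 uM, then given 0.3 uM AraC for 4 days. Hoechst nuclei were counted by imaging. Primary: normalised to pomalidomide (100%) and DMSO (0%), mean of 2 replicates. Counter: normalised to no-AraC (100%) and AraC+DMSO (0%), single replicate.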

Question: With `O=C(CCCOc1ccc(Cl)cc1)Nc1ccc(S(=O)(=O)Nc2ncccn2)cc1` as the molecule, how does the relative growth recovery read?
Answer: 0.13%

Question: How did the relative growth recovery turn out when `CC(C)(C)C(=O)N1CCC(Cc2ccc(Nc3ncc(-c4ccc(F)cc4)s3)nc2)CC1` was run?
Answer: 12.3%

Question: How did the relative growth recovery turn out when `COc1cccc(OC)c1C(=O)Nc1ccc(S(=O)(=O)Nc2nccc(C)n2)cc1` was run?
Answer: -4.17%

Question: With `Cc1cnc(Nc2cccc(C3CCCN3C(=O)COc3ccccc3)n2)s1` (configuration not stated) as the molecule, how does the relative growth recovery read?
Answer: -18.4%

Question: For `COc1ccc(C(=O)Nc2ccc(S(=O)(=O)Nc3ccccn3)cc2)cc1OC`, which relative growth recovery is on record?
Answer: -6.25%

Question: For `O=C(O)CCOCCOCCNc1ccc2c(c1)C(=O)N(C1CCC(=O)NC1=O)C2=O` (configuration not stated), which relative growth recovery is on record?
Answer: -0.075%

Question: `O=C(Nc1ccc(S(=O)(=O)Nc2ncccn2)cc1)c1ccccc1F` was tested. Which relative growth recovery did it give?
Answer: -1.7%

Question: `Cc1cnc(Nc2cccc(CC3CCN(CC(N)=O)CC3)n2)s1` was tested. Which relative growth recovery did it give?
Answer: -19.4%

Question: `CNCC(=O)N1CCC(CO)(c2cccc(Nc3ncc(-c4ccccc4)s3)n2)CC1` was tested. Which relative growth recovery did it give?
Answer: -4.66%

Question: With `O=C(COc1ccc(Cl)cc1)Nc1ccc(S(=O)(=O)Nc2ccccn2)cc1` as the molecule, how does the relative growth recovery read?
Answer: -1.21%

Question: Which relative growth recovery does the source give for `O=C(Nc1ccc(Oc2ccc3c(c2)C(=O)N(c2ccc(O)cc2)C3=O)cc1)c1cccs1` here?
Answer: -3.15%

Question: With `COc1nccnc1NS(=O)(=O)c1ccc(NC(=O)c2cccc(C)c2)cc1` as the molecule, how does the relative growth recovery read?
Answer: 4.03%

Question: `CCOc1ccccc1C(=O)Nc1ccc(S(=O)(=O)Nc2ncccn2)cc1` was tested. Which relative growth recovery did it give?
Answer: -2.12%

Question: How did the relative growth recovery turn out when `O=C(O)CC1CCN(c2cccc3c2C(=O)N(C2CCC(=O)NC2=O)C3=O)CC1` (configuration not stated) was run?
Answer: 0.73%

Question: With `COc1ccc(Cl)cc1NC(=O)CSc1nnc2c(n1)[nH]c1ccccc12` as the molecule, how does the relative growth recovery read?
Answer: -11%

Question: Which relative growth recovery does the source give for `Cc1ccc(OCC(=O)Nc2ccc(S(=O)(=O)Nc3ccccn3)cc2)cc1C` here?
Answer: 2.05%

Question: `CCCc1cnc(Nc2cccc(C3CCN(C(=O)CNC(=O)OC(C)(C)C)CC3)n2)s1` was tested. Which relative growth recovery did it give?
Answer: -5.49%

Question: Which relative growth recovery does the source give for `COc1ccccc1/C=C/C(=O)Nc1ccc(S(=O)(=O)Nc2cc(C)nc(C)n2)cc1` here?
Answer: -18.7%

Question: With `O=C(CCn1ncc2c1CCCC2)N1CCOC(c2cccc(Nc3nccs3)n2)C1` (configuration not stated) as the molecule, how does the relative growth recovery read?
Answer: 14.7%

Question: How did the relative growth recovery turn out when `COC(=O)CCC(=O)Nc1ccc(S(=O)(=O)Nc2cc(OC)nc(OC)n2)cc1` was run?
Answer: -1.54%

Question: With `Cc1cccc(OCC(=O)Nc2ccc(S(=O)(=O)Nc3ncccn3)cc2)c1C` as the molecule, how does the relative growth recovery read?
Answer: 0.295%

Question: With `Cc1cc(C)nc(NS(=O)(=O)c2ccc(NC(=O)c3ccccc3Cl)cc2)n1` as the molecule, how does the relative growth recovery read?
Answer: 0.275%

Question: For `Cc1cnc(Nc2cccc(C(C(=O)N(C)C)C3CCN(C(=O)C4CCCCC4)CC3)n2)s1` (configuration not stated), which relative growth recovery is on record?
Answer: 1.65%

Question: How did the relative growth recovery turn out when `Cc1csc(Nc2cccc(C3CCCN3C(=O)Cn3c(C)cc(C)nc3=O)n2)n1` (configuration not stated) was run?
Answer: -0.665%

Question: `CN(C)CC(=O)N1CCCC1c1cccc(Nc2nccs2)n1` (configuration not stated) was tested. Which relative growth recovery did it give?
Answer: -6%

Question: Which relative growth recovery does the source give for `Cc1cnc(Nc2cccc(C3CN(C(=O)CC4CCCCC4)CCO3)n2)s1` (configuration not stated) here?
Answer: -11.7%

Question: `COc1cc(NS(=O)(=O)c2ccc(NC(=O)C3CC3)cc2)nc(OC)n1` was tested. Which relative growth recovery did it give?
Answer: -1.71%

Question: How did the relative growth recovery turn out when `Cc1cnc(Nc2cccc(C3CCN(C(=O)CCC4CCCCC4)CC3)n2)s1` was run?
Answer: 18.3%

Question: How did the relative growth recovery turn out when `O=C(O)CCOCCOCCOCCNc1cc2c(cc1F)C(=O)N(C1CCC(=O)NC1=O)C2=O` (configuration not stated) was run?
Answer: 0.215%

Question: With `Cc1cc(C)nc(NS(=O)(=O)c2ccc(Nc3nc(-c4ccc(C)c(C)c4)cs3)cc2)n1` as the molecule, how does the relative growth recovery read?
Answer: -0.65%

Question: For `CCCc1cnc(Nc2cccc(C3CCN(C(=O)[C@@H]4CCCCN4C(=O)COC)CC3)n2)s1`, which relative growth recovery is on record?
Answer: 0.62%

Question: How did the relative growth recovery turn out when `Cc1cnc(Nc2cccc(C3CCN(C(=O)C4(NC(=O)C(C)C)CCCCC4)CC3)n2)s1` was run?
Answer: -18.7%

Question: With `O=C(c1ccc2c(c1)OCCO2)N1CCC(c2cccc(Nc3nccs3)n2)CC1` as the molecule, how does the relative growth recovery read?
Answer: -12.3%

Question: With `Cc1csc(Nc2cccc(C3CCCN3C(=O)c3cnc(C)nc3C)n2)n1` (configuration not stated) as the molecule, how does the relative growth recovery read?
Answer: -1.01%

Question: How did the relative growth recovery turn out when `Cc1cc(OCC(=O)Nc2ccc(S(=O)(=O)Nc3ncccn3)cc2)ccc1Cl` was run?
Answer: -0.26%

Question: For `Cc1cc(C)nc(NS(=O)(=O)c2ccc(NC(=S)NC(=O)/C=C/c3cccs3)cc2)n1`, which relative growth recovery is on record?
Answer: -1.09%

Question: With `CCOC(=O)c1ccc(N2C(=O)c3ccc(Oc4ccc(N)cc4)cc3C2=O)cc1` as the molecule, how does the relative growth recovery read?
Answer: 2.28%

Question: Which relative growth recovery does the source give for `Cc1csc(Nc2cccc(C3CN(C(=O)CCn4ncc5ccccc54)CCO3)n2)n1` (configuration not stated) here?
Answer: 18.8%

Question: `CC(C)(N)C(=O)N1CCC(CO)(c2cccc(Nc3ncc(-c4ccccc4)s3)n2)CC1` was tested. Which relative growth recovery did it give?
Answer: -19.1%

Question: Which relative growth recovery does the source give for `Cc1cnc(Nc2cccc(C3CCN(C(=O)[C@@H]4CCCCN4)CC3)n2)s1` here?
Answer: -15%

Question: For `CNC(=O)C(c1cccc(Nc2ncc(C)s2)n1)C1CCN(C(=O)c2cccc(Cl)c2F)CC1` (configuration not stated), which relative growth recovery is on record?
Answer: 0.915%

Question: With `Cc1ccnc(NS(=O)(=O)c2ccc(NC(=O)c3cccs3)cc2)n1` as the molecule, how does the relative growth recovery read?
Answer: 3.83%

Question: How did the relative growth recovery turn out when `CC(=O)Nc1ccc(S(=O)(=O)Nc2ccc(S(=O)(=O)Nc3nccc(C)n3)cc2)cc1` was run?
Answer: -6.14%

Question: `Cc1cnc(Nc2cccc(C3CCCN3C(=O)Cn3cnc4ccccc43)n2)s1` (configuration not stated) was tested. Which relative growth recovery did it give?
Answer: -19.5%

Question: How did the relative growth recovery turn out when `O=C(COc1ccc(Cl)cc1)Nc1ccc(S(=O)(=O)Nc2ncccn2)cc1` was run?
Answer: -2.35%

Question: How did the relative growth recovery turn out when `O=C(Nc1ccc(S(=O)(=O)Nc2ccccn2)cc1)c1ccc(Cl)cc1` was run?
Answer: 0.46%

Question: For `CC(=O)Nc1ccc(C(=O)Nc2ccc(S(=O)(=O)Nc3nccc(C)n3)cc2)cc1`, which relative growth recovery is on record?
Answer: -2.91%
